Drawing on PubChem BioAssay AID463173 (ICCB-Longwood Screening Facility, Harvard Medical School, 2010), this text covers survival for 90 compounds.

About 1,700 (3.3%) of roughly 52,000 compounds were called active. Cut-off read from the data, not from the text of the source: active = survival mostly below about 52% (no sharp cut-off); inactive = mostly above about 56%. Some of the results follow.

The test system of this test is Wild type. In words: growth inhibition of S. aureus wild type versus tarO mutant, primary screen, teichoic acid synthesis inhibitors, RN4220, OD600 (AID 463173). The note with it: S. aureus RN4220 wild type/DeltatarO growth, OD600, 18 h, hits give low values, screened at 18.75 µg/mL (by protocol).
For `CCOc1ccccc1NCc1nnc2n1CCCCC2`, the survival was inactive: 76%.

For the compound `Cc1ccc(NCc2cc3cc4c(cc3n(CC(=O)Nc3ccc(C)cc3)c2=O)OCCO4)cc1`, the survival is active: 0%.

As to `COc1ccc(C)cc1NC(=O)c1nnn(CC(=O)Nc2c(C)cccc2C)c1N`, the survival was inactive: 74%.

For `CC1=C(C(=O)N(C)C)C(c2ccccc2Cl)NC(=O)N1` (stereo not given), the survival is inactive: 102%.

As to `Cc1ccc(C)c(S(=O)(=O)c2nnn3c2nc(NC2CCCC2)c2sccc23)c1`, the survival was inactive: 58%.

Take `Cc1ccc(S(=O)(=O)c2cn(Cc3ccccc3)c3cc(N4CCCC4)c(F)cc3c2=O)c(C)c1`: the survival was inactive: 78%.

On to `CSc1nnc(NC(=O)c2cc(=O)c3cc(C)c(C)cc3o2)s1`, for which the survival is inactive: 86%.

As to `CCc1cccc(NC(=O)c2cc3c(=O)oc4ccc(C)cc4c3s2)c1`, the survival is inactive: 129%.

On to `COc1ccc(CNC(=O)C(CC(C)C)NS(=O)(=O)c2ccc3c(c2)oc(=O)n3C)cc1` (stereo not given), for which the survival is inactive: 79%.

Regarding `CCCNS(=O)(=O)c1ccc(OCC(=O)NCc2ccco2)cc1`, the survival is inactive: 116%.

With `CCCCN(CC)C(=O)c1ccc2c(c1)NC(=O)c1ccccc1S2`, the survival was inactive: 99%.

Take `Cc1cccc(C)c1NC(=O)C(=O)NCC(c1ccc2c(c1)OCO2)N1CCN(C)CC1` (stereo not given): the survival is inactive: 78%.

With `CC(C)(C)n1nnnc1C(c1cccc(C(F)(F)F)c1)N1CCC(O)CC1` (stereo not given), the survival was inactive: 127%.

As for `COc1cc(S(=O)(=O)Nc2ccccc2NC(=O)CN2CCOCC2)c(OC)cc1NC(C)=O`, the survival is inactive: 111%.

Regarding `CCOc1c(CNCCSc2nnnn2C)cccc1OC`, the survival is inactive: 69%.

On to `COC(=O)c1cc(-c2ccc(C)cc2)no1`, for which the survival was inactive: 102%.

`N#Cc1ccc(OCc2nnc(SCC(=O)c3ccccc3)n2-c2ccccc2)cc1`: the survival was inactive: 108%.

On to `Cc1ccc(Cn2c(=O)n(Cc3ccc(C(=O)NC4CCN(Cc5ccccc5)CC4)cc3)c(=O)c3ccccc32)cc1`, for which the survival is inactive: 81%.

`CCc1cccc(NC(=O)C2CCCN2S(=O)(=O)c2ccc3nc(-c4ccccc4)[nH]c3c2)c1` (stereo not given): the survival was inactive: 49%.

On to `CCN(CC)CCN1C(=O)c2ccccc2NC1c1ccccc1F` (stereo not given), for which the survival was inactive: 110%.

On to `CC(=O)c1ccc(NC(=O)CCn2cccn2)cc1`, for which the survival is inactive: 63%.

For the compound `Cc1ccc(-n2c(C)cc(C=C3C(=O)NC(=O)NC3=O)c2C)cc1`, the survival is inactive: 105%.

`CN1C(=O)Cc2cc(S(=O)(=O)NCc3ccccc3Cl)ccc21`: the survival is inactive: 97%.

For the compound `O=C(c1ccc(Br)cc1)N(Cc1ccco1)c1ccccn1`, the survival is inactive: 82%.

On to `Cc1ccc2oc(C(=O)N3CCC(c4nc5ccccc5s4)CC3)c(C)c2c1`, for which the survival was inactive: 70%.

Take `COc1ccc(N(CC(=O)N2CCCCC2)S(=O)(=O)c2ccc(OC)c(OC)c2)cc1`: the survival was inactive: 71%.

Consider `CCCc1ccc(OCc2ccc(C(=O)Nc3ccccc3C(=O)OC)o2)cc1`, for which the survival was active: 3%.

Consider `CCc1ccc(CNC(=O)c2cccc(-n3c(C)nc4cccnc43)c2)cc1`, for which the survival was inactive: 65%.

Consider `CCc1ccc(NC(=O)Cn2c(=O)n(-c3cccc(OC)c3)c(=O)c3c(C)c(C(=O)N(C)C)sc32)cc1`, for which the survival is inactive: 88%.

Turning to `COc1ccc(-c2cnnn2-c2ccc(NC(=O)c3ccccc3OC)cc2)cc1`, the survival was inactive: 153%.

Regarding `Cc1c(C(=O)NCc2cccc(Cl)c2)sc2nc3n(c(=O)c12)CCCC3`, the survival is inactive: 74%.

`COc1ccc(CCNC(=O)CN2C(=O)COc3ccc(S(=O)(=O)N4CCCC4)cc32)c(OC)c1`: the survival was inactive: 79%.

With `Cc1ccc(NC(=O)CC2Oc3ccccc3NC2=O)cc1C` (stereo not given), the survival is inactive: 127%.

With `COc1ccc(C2=C(N3CCN(c4cccc(C)c4C)CC3)c3ccccc3C2=O)cc1`, the survival was inactive: 78%.

As for `CCN(CC)CCCNC(=O)c1ccc(Cn2c(SCc3ccccc3)nc3cccnc32)cc1`, the survival is inactive: 65%.

As to `Cn1c(=O)n(Cc2c(F)cccc2Cl)c(=O)c2c1nc1n2CCN1c1ccc(F)cc1`, the survival was inactive: 112%.

`Cc1c(C(=O)NCc2cccc(Br)c2)oc2ccc3c(c12)C(=O)CC(C)(C)O3`: the survival was inactive: 67%.

As to `COc1c(C)cccc1C(=O)Nc1ccc(-c2nc3ccccc3s2)c(Cl)c1`, the survival is inactive: 89%.

Turning to `Nc1nn(-c2ccccc2)nc1C(=O)OCc1ccc(Cl)cc1`, the survival is inactive: 59%.

Turning to `COc1ccc(-c2nc3sc(CCNC(=O)C(=O)Nc4cccc(NC(C)=O)c4)c(C)n3n2)cc1`, the survival is inactive: 99%.

`CC1=C(C(=O)NCc2ccccc2F)C2(CCCCC2)OC1=O`: the survival is inactive: 73%.

For the compound `Cc1ccc(CCNC(=O)C2CCCN(c3nnc(C)c4c(C)n(-c5ccccc5)nc34)C2)cc1` (stereo not given), the survival was inactive: 71%.

Regarding `COCCNC(=O)c1nn(-c2ccc(C)cc2)c(=O)c2c1c1ccccc1n2C`, the survival was inactive: 88%.

For the compound `CCOc1ccc(-c2cc(C(=O)OC)on2)cc1`, the survival is inactive: 102%.

Turning to `O=C(Nc1ccccc1Cl)N1CCC(CN2CCCC2)CC1`, the survival was inactive: 55%.

For `N#Cc1ccc(-c2ccc(F)cc2)n(CC(=O)N2CCC(C(N)=O)CC2)c1=O`, the survival was inactive: 108%.

For the compound `COc1cccc(-c2nc(CS(=O)(=O)CC(=O)NCc3cccc(Cl)c3)c(C)o2)c1`, the survival is inactive: 82%.

For `Cc1ccc(CSc2ncc(Cl)c(C(=O)Nc3nnc(C)s3)n2)cc1`, the survival is inactive: 52%.

As for `N#CC(C#N)=Cc1cn(CC(=O)N2CCOCC2)c2ccccc12`, the survival was inactive: 110%.

As for `CC1=C(c2ccc(F)cc2)S(=O)(=O)N=C1N1CCC(C(=O)NCCc2cccc(C)c2)CC1`, the survival was inactive: 87%.

As to `COc1cc2ncc3c(-c4ccc(C)cc4)nn(-c4ccc(F)cc4F)c3c2cc1OC`, the survival is inactive: 75%.

Regarding `CN(C)CCCNc1cc(N2CCN(C3CCCCC3)CC2)c2noc3c2c1C(=O)c1ccccc1-3`, the survival was inactive: 72%.

Turning to `COc1ccc(Cn2ccnc2SCC(=O)Nc2nc3ccccc3s2)cc1`, the survival was inactive: 91%.

For the compound `COc1ccccc1CNc1ccccc1F`, the survival is inactive: 113%.

Take `O=C(NCc1ccc2c(c1)CCN2C(=O)c1ccccc1)Nc1cccc(C(F)(F)F)c1`: the survival is inactive: 124%.

Turning to `Cc1ccccc1OCCSc1nc2ccc(NC(=O)c3cccc(F)c3)cc2s1`, the survival was inactive: 110%.

As to `Cc1ccc(NC(=O)CN2C(=O)c3cccnc3Oc3ccc(Cl)cc32)cc1`, the survival was inactive: 138%.

As to `Cc1ccn2c(Nc3ccc4c(c3)OCCO4)c(-c3ccc(C)o3)nc2c1`, the survival was inactive: 75%.

Regarding `Cc1cc(Nc2ccccc2C)n2nc(Cc3ccc(Cl)cc3)nc2n1`, the survival is inactive: 81%.

For `Cc1c(C(=O)NCc2ccccc2Cl)sc2ncnc(N(C)C3CCCCC3)c12`, the survival is inactive: 88%.

Regarding `Cc1ccccc1-c1nc(CN2CCC(C(=O)NCc3ccc(F)cc3)CC2)c(C)o1`, the survival was inactive: 90%.

Turning to `CC(=O)c1ccc(NC(=O)c2ccc3c(c2)N(Cc2cccc(Cl)c2)C(=O)c2ccccc2S3=O)cc1` (stereo not given), the survival is inactive: 93%.

In the case of `CCOC(=O)c1c(C)n(-c2ccccc2)c2ccc(OC(=O)COc3ccc(Cl)cc3)cc12`, the survival was inactive: 78%.

As for `COc1ccc(NC(=O)c2cc3c(s2)-c2c(C)cccc2OC3)cc1Cl`, the survival was inactive: 87%.

As to `CC(Sc1nnc2c(n1)[nH]c1ccccc12)C(=O)NC1CC1` (stereo not given), the survival was inactive: 103%.

As to `CCCN(CCC)c1ccc(C2N=C(N)Nc3nc4ccccc4n32)cc1` (stereo not given), the survival is inactive: 64%.

`CCNC(=O)C1CCN(S(=O)(=O)c2ccc3c(c2)CCCN3C(C)=O)CC1`: the survival is inactive: 73%.

Turning to `CCOc1cc(C(=O)Nc2ccc(-c3cn4cccnc4n3)cc2)cc(OCC)c1OCC`, the survival was inactive: 97%.

Turning to `O=C(Nc1ccc(N2CCCCC2)cc1)c1ccc2c(c1)OCO2`, the survival was inactive: 112%.

On to `O=C(NCc1ccccc1)c1ccc(NC(=O)N2CC3CCCN3c3ccccc32)cc1` (stereo not given), for which the survival was inactive: 77%.

On to `Cc1ccc(S(=O)(=O)NC(Cc2ccccc2)C(=O)NN)cc1` (stereo not given), for which the survival is inactive: 115%.

`Cn1c(=O)oc2cc(S(=O)(=O)CCC(=O)N3CCN(c4cccc(Cl)c4)CC3)ccc21`: the survival was inactive: 68%.

For the compound `COc1ccc(Br)cc1CNC(=O)c1cnc2sc(N3CCC(C)CC3)nn2c1=O`, the survival was inactive: 68%.

Regarding `Cc1ccc(C)c(N2CCN(S(=O)(=O)c3cc(C(=O)Nc4ccc(Oc5ccccc5)cc4)ccc3F)CC2)c1`, the survival was inactive: 128%.

For `CC1CCc2c(sc(N)c2C(N)=O)C1` (stereo not given), the survival was inactive: 96%.

Take `Cc1ccc(S(=O)(=O)c2nnn3c2nc(NCc2ccc4c(c2)OCO4)c2sccc23)cc1C`: the survival was inactive: 86%.

Regarding `CCc1ccc(NC(=O)CN2C(=O)c3cccc4cccc2c34)cc1`, the survival was inactive: 103%.

In the case of `Cc1ccc2c(c1)c1c(c(=O)n(-c3ccccc3)c(=O)n1CC(=O)NCC1CCCO1)n2C` (stereo not given), the survival is inactive: 72%.

As to `COc1ccc(C2(CC(=O)O)CCOC(C)(C)C2)cc1` (stereo not given), the survival is inactive: 100%.

On to `Cc1nc2ccccn2c(=O)c1NC(=O)c1ccc(F)c(F)c1`, for which the survival is inactive: 80%.

Consider `COc1cc(Cl)c(NC(=O)c2cc3ccccn3n2)c(OC)c1`, for which the survival is inactive: 77%.

Consider `Cc1cccc(NC(=O)C2CCCN2S(=O)(=O)c2ccc3nc(-c4ccccc4)[nH]c3c2)c1` (stereo not given), for which the survival was inactive: 42%.

Take `O=c1n(Cc2ccccc2Cl)c2ccccc2c2nc(-c3ccccc3)nn12`: the survival was inactive: 86%.

With `Cc1nn2c(=O)cc(COC(=O)c3ccc(NC(=O)COc4ccc(C)c(C)c4)cc3)nc2s1`, the survival was inactive: 135%.

As to `CCCn1cnc2scc(-c3ccccc3)c2c1=O`, the survival was inactive: 99%.

For `Cc1ncc(CO)c2c1Oc1nc(-c3ccccc3Cl)nc(SCc3ccccc3F)c1C2`, the survival was inactive: 84%.

As for `COCCCNC(=O)Cn1cnc2sc(C)c(S(=O)(=O)N3CCC(C)CC3)c2c1=O`, the survival is inactive: 72%.

For `COC(=O)C(C)Sc1ccc2nnc(CCNS(=O)(=O)c3ccc(C)cc3)n2n1` (stereo not given), the survival is inactive: 94%.

With `COc1ccc2oc(=O)c(C(=O)Nc3ccc(O)cc3)cc2c1`, the survival is inactive: 101%.

Turning to `Cc1ccc(C)c(NC(=O)n2ncc3cc(Cl)ccc32)c1`, the survival was inactive: 83%.
